Measurements: PMC9911399, “Two distinct binding modes provide the RNA-binding protein RbFox with extraordinary sequence specificity”
Positions count from the first letter of the chain named. The list shows a part of the results.

T1: RBFOX1 RRM (Homo sapiens, UniProt Q9NWB1 109-208)
T1 sequence: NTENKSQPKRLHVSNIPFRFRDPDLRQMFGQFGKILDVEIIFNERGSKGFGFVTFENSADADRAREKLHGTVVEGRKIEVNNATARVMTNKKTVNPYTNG

B1: AACUCUU (DNA:RNA)
RNA: GGGAGACCGGAAUUCAGAUUGUCCAACUCUUUUAAAUCCCGUCGUAGCCACCA
DNA 1: CAATCTGAATTCCGGTCTCCC
DNA 2: TGGTGGCTACGACGGGATT
B2: AGUUGCG (DNA:RNA)
RNA: B1 RNA with A26G, C27U, C29G, U30C, U31G
DNA 1: CAATCTGAATTCCGGTCTCCC
DNA 2: TGGTGGCTACGACGGGATT
B3: UCGGGGG (DNA:RNA)
RNA: GGGAGACCGGAAUUCAGAUUGUCCUCGGGGGUUAAAUCCCGUCGUAGCCACCA
DNA 1: CAATCTGAATTCCGGTCTCCC
DNA 2: TGGTGGCTACGACGGGATT
B4: GCUUCCA (DNA:RNA)
RNA: B1 RNA with A25G, A26C, C27U, U30C, U31A
DNA 1: CAATCTGAATTCCGGTCTCCC
DNA 2: TGGTGGCTACGACGGGATT
B5: CUAAAGA (DNA:RNA)
RNA: B3 RNA with U25C, C26U, G27A, G28A, G29A, G31A
DNA 1: CAATCTGAATTCCGGTCTCCC
DNA 2: TGGTGGCTACGACGGGATT
B6: UGACAUC (DNA:RNA)
RNA: B1 RNA with A25U, A26G, C27A, U28C, C29A, U31C
DNA 1: CAATCTGAATTCCGGTCTCCC
DNA 2: TGGTGGCTACGACGGGATT
B7: CCCGACG (DNA:RNA)
RNA: B3 RNA with U25C, G27C, G29A, G30C
DNA 1: CAATCTGAATTCCGGTCTCCC
DNA 2: TGGTGGCTACGACGGGATT
B8: UGAUUGC (DNA:RNA)
RNA: B3 RNA with C26G, G27A, G28U, G29U, G31C
DNA 1: CAATCTGAATTCCGGTCTCCC
DNA 2: TGGTGGCTACGACGGGATT
B9: CGUUACU (DNA:RNA)
RNA: B1 RNA with A25C, A26G, C27U, C29A, U30C
DNA 1: CAATCTGAATTCCGGTCTCCC
DNA 2: TGGTGGCTACGACGGGATT
B10: GAGACUG (DNA:RNA)
RNA: B1 RNA with A25G, C27G, U28A, U31G
DNA 1: CAATCTGAATTCCGGTCTCCC
DNA 2: TGGTGGCTACGACGGGATT
B11: GGUUCAC (DNA:RNA)
RNA: B1 RNA with A25G, A26G, C27U, U30A, U31C
DNA 1: CAATCTGAATTCCGGTCTCCC
DNA 2: TGGTGGCTACGACGGGATT
B12: ACCCUCC (DNA:RNA)
RNA: B1 RNA with A26C, U28C, C29U, U30C, U31C
DNA 1: CAATCTGAATTCCGGTCTCCC
DNA 2: TGGTGGCTACGACGGGATT
B13: AGACUAC (DNA:RNA)
RNA: B1 RNA with A26G, C27A, U28C, C29U, U30A, U31C
DNA 1: CAATCTGAATTCCGGTCTCCC
DNA 2: TGGTGGCTACGACGGGATT
B14: GGGUCCU (DNA:RNA)
RNA: B1 RNA with A25G, A26G, C27G, U30C
DNA 1: CAATCTGAATTCCGGTCTCCC
DNA 2: TGGTGGCTACGACGGGATT
B15: GAAAACA (DNA:RNA)
RNA: B1 RNA with A25G, C27A, U28A, C29A, U30C, U31A
DNA 1: CAATCTGAATTCCGGTCTCCC
DNA 2: TGGTGGCTACGACGGGATT
B16: AAUCUAA (DNA:RNA)
RNA: B1 RNA with C27U, U28C, C29U, U30A, U31A
DNA 1: CAATCTGAATTCCGGTCTCCC
DNA 2: TGGTGGCTACGACGGGATT
B17: UGAGCCA (DNA:RNA)
RNA: B3 RNA with C26G, G27A, G29C, G30C, G31A
DNA 1: CAATCTGAATTCCGGTCTCCC
DNA 2: TGGTGGCTACGACGGGATT
B18: CGGACCC (DNA:RNA)
RNA: B1 RNA with A25C, A26G, C27G, U28A, U30C, U31C
DNA 1: CAATCTGAATTCCGGTCTCCC
DNA 2: TGGTGGCTACGACGGGATT
B19: ACGCACU (DNA:RNA)
RNA: B1 RNA with A26C, C27G, U28C, C29A, U30C
DNA 1: CAATCTGAATTCCGGTCTCCC
DNA 2: TGGTGGCTACGACGGGATT
B20: UACUACC (DNA:RNA)
RNA: B1 RNA with A25U, C29A, U30C, U31C
DNA 1: CAATCTGAATTCCGGTCTCCC
DNA 2: TGGTGGCTACGACGGGATT

molecular target: T1, RBFOX1 RRM; test: EMSA; HiTS-Eq, 1 nM pool, 10 min; buffer printed only for the single-RNA assays: 10 mM Tris pH 7.5, 150 mM NaCl, 3.4 mM EDTA, 0.001% NP-40, 30 C; conditions: tags: His6 N-terminal (pET28a); label: 5' 32P
How it was run: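 Purified wild-type or mutant RbFox RRM at increasing concentrations was equilibrated with 1 nM of 5′-radiolabelled RNA carrying 7 randomized nucleotides for 10 min in 50 µL. Unbound RNA was separated by 8% native PAGE and sequenced. Relative association constants came from read-count changes of each RNA species compared with the control reaction, normalised to the cognate motif.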

Row | Binder | binding signal
1 | B1 | 0.000511 KA relative to UGCAUGU
2 | B2 | 0.0152 KA relative to UGCAUGU
3 | B3 | 0.0101 KA relative to UGCAUGU
4 | B4 | 0.00903 KA relative to UGCAUGU
5 | B5 | 0.0053 KA relative to UGCAUGU
6 | B6 | 0.0111 KA relative to UGCAUGU
7 | B7 | 0.0192 KA relative to UGCAUGU
8 | B8 | 0.0265 KA relative to UGCAUGU
9 | B9 | 0.00711 KA relative to UGCAUGU
10 | B10 | 0.0149 KA relative to UGCAUGU
11 | B11 | 0.0163 KA relative to UGCAUGU
12 | B12 | 0.000977 KA relative to UGCAUGU
13 | B13 | 0.00512 KA relative to UGCAUGU
14 | B14 | 0.016 KA relative to UGCAUGU
15 | B15 | 0.00224 KA relative to UGCAUGU
16 | B16 | 0.00253 KA relative to UGCAUGU
17 | B17 | 0.00784 KA relative to UGCAUGU
18 | B18 | 0.0213 KA relative to UGCAUGU
19 | B19 | 0.00728 KA relative to UGCAUGU
20 | B20 | 0.0026 KA relative to UGCAUGU
